Assay results reported in the DeepSol protein solubility set.

Assay: soluble on expression in E. coli; label from the status in PepcDB or PDB records

MGASYSSYLAKADQKRGKKQTARETKKKVLAERRKPLNIDHLNEDKLRDKAKELWDWLYQLQTEKYDFAEQIKRKKYEIVTLRNRIDQAQKHSKKAGAKGKVGGRWK
soluble on expression in E. coli: soluble

MSKVSRESLNEAIAEVLKGSSEKPRKFRETIELQIGLKNYDPQKDKRFSGSIRLKHIPRPNMKVCVFGDQHHLDEAAAGDIPSMSADDLKKLNKQKKLIKKLAKSYDAFIASESLIKQIPRILGPGLNKAGKFPSVVTHGESLQSKSDEIRATVKFQMKKVLCLSVAVGHVGLTQEELVSNISLSINFLVSLLKKNWQNVRSLNIKSTMGKPQRVY
soluble on expression in E. coli: not soluble

GPDDNHLSIVTLEEAPFVIVEDIDPLTETCVRNTVPCRKFVKINNSTNEGMNVKKCCKGFCIDILKKLSRTVKFTYDLYLVTNGKHGKKVNNVWNGMIGEVVYQRAVMAVGSLTINEERSEVVDFSVPFVETGISVMVSRGTQVTGLSDKKFQRPHDYSPPFRFGTVPNGSTERNIRNNYPYMHQYMTRFNQRGVEDALVSLKTGKLDAFIYDAAVLNYKAGRDEGCKLVTIGSGYIFATTGYGIALQKGSPWKRQIDLALLQFVGDGEMEELETLWLTGICHN
soluble on expression in E. coli: soluble

MGHHHHHHSHMMYYYDDGTGVQVYPVEEALLKEYIKRQIEYYFSVENLERDFFLRGKMDEQGFLPISLIAGFQRVQALTTNLNLILEALKDSTEVEIVDEKMRKEIEPEKWPIPGPPPRSVPPTDFSQLIDCPEFVPGQAFCSHTESAPNSPRIGSPLSPKKNSETSILQAMSRGLSTSLPDLDSEPWIEVKKRHQPAPVKLRESVSVPEGSLNQLCSSEEPEQEELDFLFDEEIEQIGRKNTFTDWSDNDSDYEIDDQDLNKILIVTQTPPYVKKHRGGDRTGTHMSRAKITSELAKVINDGLYYYEQDLWMEEDENKHTAIKVIVSGQHLSTDALF
soluble on expression in E. coli: soluble

MPAPRYRSRSYRRIYRRTPGGRIVIHYKRRKPGKPKCAICGAELHGVPRGRPVEIRKLPKSQRRPERPYGGYLCPRCLKRLMIQKARNLLEHHHHHH
soluble on expression in E. coli: not soluble

DIVLTQSPASLAVSLGQRATISCRASESVDNYGISFMSWFQQKPGQPPKLLIYAASNQGSGVPARFSGSGSGTDFSLNIHPMEEDDTAMYFCQQSKEVPLTFGAGTKLELKRADAAPTVSIFPPSSEQLTSGGASVVCFLNNFYPKDINVRWKIDGSERQNGVLNSWTDQDSKDSTYSMSSTLTLTKDEYERHNSYTCEATHAASPIVKSFNRNEC
soluble on expression in E. coli: soluble

AHHHHHHGSDLAFELRKAMETGKVVLGSNETIRLAKTGGAKLIIVAKNAPKEIKDDIYYYAKLSDIPVYEFEGTSVELGTLLGKPFVVASLAIVDPGESKILAIAKR
soluble on expression in E. coli: soluble
